This is one part of the list.
Columns and labels:
Experiment in all cases: glycan array binding signal (z-score within array); higher = stronger binding
Conditions in all cases: glycan notation: IUPAC condensed, linker removed
[1] = target: Neu5Ac(a2-6)Gal(b1-4)GlcNAc(b1-2)Man(a1-3)[GlcNAc(b1-4)][Neu5Ac(a2-6)Gal(b1-4)GlcNAc(b1-2)Man(a1-6)]Man(b1-4)GlcNAc(b1-4)GlcNAc
Method in brief: (§1)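 Arrays were curated from the Consortium for Functional Glycomics database, 3228 in total, and kept only where the protein sequence was available. Binding is expressed as a within-array Z-score. This score was averaged across arrays of the same protein sequence at different concentrations or buffers and across linkers, and negative values can be read as non-binding.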

[2] = target: Neu5Ac(a2-6)Gal(b1-4)GlcNAc(b1-2)Man(a1-3)[Man(a1-6)]Man(b1-4)GlcNAc(b1-4)GlcNAc
Method in brief: as §1

[3] = target: Neu5Ac(a2-6)Gal(b1-4)GlcNAc(b1-2)Man(a1-3)[Neu5Ac(a2-3)Gal(b1-4)GlcNAc(b1-2)Man(a1-6)]Man(b1-4)GlcNAc(b1-4)GlcNAc
Method in brief: as §1

[4] = target: Neu5Ac(a2-6)Gal(b1-4)GlcNAc(b1-2)Man(a1-3)[Neu5Ac(a2-6)Gal(b1-4)GlcNAc(b1-2)Man(a1-6)]Man(b1-4)GlcNAc(b1-4)GlcNAc
Method in brief: as §1

[5] = target: Neu5Ac(a2-6)Gal(b1-4)GlcNAc(b1-2)Man(a1-3)[Neu5Ac(a2-6)Gal(b1-4)GlcNAc(b1-2)Man(a1-6)]Man(b1-4)GlcNAc(b1-4)[Fuc(a1-6)]GlcNAc
Method in brief: as §1

[6] = target: Neu5Ac(a2-6)Gal(b1-4)GlcNAc(b1-2)Man(a1-6)Man(b1-4)GlcNAc(b1-4)GlcNAc
Method in brief: as §1

[7] = target: Neu5Ac(a2-6)Gal(b1-4)GlcNAc(b1-2)Man(a1-6)[Gal(b1-4)GlcNAc(b1-2)Man(a1-3)]Man(b1-4)GlcNAc(b1-4)GlcNAc
Method in brief: as §1

[8] = target: Neu5Ac(a2-6)Gal(b1-4)GlcNAc(b1-2)Man(a1-6)[GlcNAc(b1-2)Man(a1-3)]Man(b1-4)GlcNAc(b1-4)GlcNAc
Method in brief: as §1

[9] = target: Neu5Ac(a2-6)Gal(b1-4)GlcNAc(b1-2)Man(a1-6)[Man(a1-3)]Man(b1-4)GlcNAc(b1-4)GlcNAc
Method in brief: as §1

[10] = target: Neu5Ac(a2-6)Gal(b1-4)GlcNAc(b1-2)[Neu5Ac(a2-6)Gal(b1-4)GlcNAc(b1-4)]Man(a1-3)[GlcNAc(b1-4)][Neu5Ac(a2-6)Gal(b1-4)GlcNAc(b1-2)[Neu5Ac(a2-6)Gal(b1-4)GlcNAc(b1-6)]Man(a1-6)]Man(b1-4)GlcNAc(b1-4)GlcNAc
Method in brief: as §1

[11] = target: Neu5Ac(a2-6)Gal(b1-4)GlcNAc(b1-2)[Neu5Ac(a2-6)Gal(b1-4)GlcNAc(b1-4)]Man(a1-3)[GlcNAc(b1-4)][Neu5Ac(a2-6)Gal(b1-4)GlcNAc(b1-4)Man(a1-6)]Man(b1-4)GlcNAc(b1-4)GlcNAc
Method in brief: as §1

[12] = target: Neu5Ac(a2-6)Gal(b1-4)GlcNAc(b1-2)[Neu5Ac(a2-6)Gal(b1-4)GlcNAc(b1-6)]Man(a1-6)[Neu5Ac(a2-6)Gal(b1-4)GlcNAc(b1-2)Man(a1-3)][GlcNAc(b1-4)]Man(b1-4)GlcNAc(b1-4)GlcNAc
Method in brief: as §1

[13] = target: Neu5Ac(a2-6)Gal(b1-4)GlcNAc(b1-3)Gal(b1-3)GlcNAc
Method in brief: as §1

[14] = target: Neu5Ac(a2-6)Gal(b1-4)GlcNAc(b1-3)Gal(b1-4)GlcNAc
Method in brief: as §1

[15] = target: Neu5Ac(a2-6)Gal(b1-4)GlcNAc(b1-3)Gal(b1-4)GlcNAc(b1-2)Man(a1-3)[Neu5Ac(a2-6)Gal(b1-4)GlcNAc(b1-3)Gal(b1-4)GlcNAc(b1-2)Man(a1-6)]GalNAc
Method in brief: as §1

[16] = target: Neu5Ac(a2-6)Gal(b1-4)GlcNAc(b1-3)Gal(b1-4)GlcNAc(b1-3)Gal(b1-4)GlcNAc
Method in brief: as §1

[17] = target: Neu5Ac(a2-6)Gal(b1-4)GlcNAc(b1-3)Gal(b1-4)GlcNAc(b1-3)Gal(b1-4)GlcNAc(b1-2)Man(a1-3)[Neu5Ac(a2-6)Gal(b1-4)GlcNAc(b1-3)Gal(b1-4)GlcNAc(b1-3)Gal(b1-4)GlcNAc(b1-2)Man(a1-6)]GalNAc
Method in brief: as §1

[18] = target: Neu5Ac(a2-6)Gal(b1-4)GlcNAc(b1-3)Gal(b1-4)GlcNAc(b1-3)GalNAc
Method in brief: as §1

[19] = target: Neu5Ac(a2-6)Gal(b1-4)GlcNAc(b1-3)Gal(b1-4)GlcNAc(b1-3)[Neu5Ac(a2-6)Gal(b1-4)GlcNAc(b1-3)Gal(b1-4)GlcNAc(b1-6)]GalNAc
Method in brief: as §1

[20] = target: Neu5Ac(a2-6)Gal(b1-4)GlcNAc(b1-3)Gal(b1-4)GlcNAc(b1-6)[Gal(b1-3)]GalNAc
Method in brief: as §1

[21] = target: Neu5Ac(a2-6)Gal(b1-4)GlcNAc(b1-3)Gal(b1-4)[Fuc(a1-3)]GlcNAc(b1-3)Gal(b1-4)[Fuc(a1-3)]GlcNAc
Method in brief: as §1

[22] = target: Neu5Ac(a2-6)Gal(b1-4)GlcNAc(b1-3)GalNAc
Method in brief: as §1

[23] = target: Neu5Ac(a2-6)Gal(b1-4)GlcNAc(b1-3)[Neu5Ac(a2-6)Gal(b1-4)GlcNAc(b1-6)]GalNAc
Method in brief: as §1

[24] = target: Neu5Ac(a2-6)Gal(b1-4)GlcNAc(b1-6)GalNAc
Method in brief: as §1

[25] = target: Neu5Ac(a2-6)Gal(b1-4)GlcNAc(b1-6)[Gal(b1-3)GlcNAc(b1-3)]Gal(b1-4)Glc
Method in brief: as §1

[26] = target: Neu5Ac(a2-6)Gal(b1-4)GlcNAc(b1-6)[Gal(b1-3)]GalNAc
Method in brief: as §1

[27] = target: Neu5Ac(a2-6)Gal(b1-4)GlcNAc6S
Method in brief: as §1

Neu5Ac(a2-6)GalNAc = target: Neu5Ac(a2-6)GalNAc
Method in brief: as §1

[28] = target: Neu5Ac(a2-6)GalNAc(b1-4)GlcNAc
Method in brief: as §1

[29] = target: Neu5Ac(a2-6)GalNAc(b1-4)GlcNAc6S
Method in brief: as §1

[30] = target: Neu5Ac(a2-6)GlcNAc(b1-4)GlcNAc
Method in brief: as §1

B1: MGL2 (Mus musculus), Q8JZN1 (protein)
chain: MTMRYENFQNLEREEKNQEMRNGDKKGGMESPKFALIPSQSFLWRILSWTHLLLFSLGLSLLLLVVISVIGSQNSQLRRDLGTLRAILDNTTSKIKAEFQSLDSRADNFEKGISSLKVDVEDHRQELQAGRDLSQKVTSLESTLEKREQALKTDLSDLTDHVQQLETDLKALTCQLANLKNNGSEVACCPLHWTEHEGSCYWFSESEKSWPEADKYCRLENSHLVVVNSLEEQNFLQNRLANVLSWMGLTDQNGPWRWVDGTDFDKGFKNWRPLQPDNWHGHMLGGGEDCAHFSYDGRWNDDVCQRHYHWICETELGKASSAHSPQLIASVP
glycan array binding signal (z-score) [1]: -0.254
glycan array binding signal (z-score) [2]: -0.199
glycan array binding signal (z-score) [3]: -0.217
glycan array binding signal (z-score) [4]: -0.178
glycan array binding signal (z-score) [5]: -0.157
glycan array binding signal (z-score) [6]: -0.268
glycan array binding signal (z-score) [7]: -0.174
glycan array binding signal (z-score) [8]: -0.184
glycan array binding signal (z-score) [9]: -0.178
glycan array binding signal (z-score) [10]: -0.223
glycan array binding signal (z-score) [11]: -0.19
glycan array binding signal (z-score) [12]: -0.258
glycan array binding signal (z-score) [13]: -0.032
glycan array binding signal (z-score) [14]: -0.298
glycan array binding signal (z-score) [15]: 0.141
glycan array binding signal (z-score) [16]: -0.239
glycan array binding signal (z-score) [17]: 0.66
glycan array binding signal (z-score) [18]: -0.283
glycan array binding signal (z-score) [19]: 0.233
glycan array binding signal (z-score) [20]: -0.073
glycan array binding signal (z-score) [21]: -0.246
glycan array binding signal (z-score) [22]: -0.116
glycan array binding signal (z-score) [23]: -0.205
glycan array binding signal (z-score) [24]: -0.074
glycan array binding signal (z-score) [25]: -0.123
glycan array binding signal (z-score) [26]: -0.022
glycan array binding signal (z-score) [27]: -0.16
glycan array binding signal (z-score) (Neu5Ac(a2-6)GalNAc): -0.206
glycan array binding signal (z-score) [28]: -0.218
glycan array binding signal (z-score) [29]: -0.1
glycan array binding signal (z-score) [30]: -0.233

— the supplement of paper PMC8728848
